Assay results as given in PubChem BioAssay AID686971 (National Center for Advancing Translational Sciences (NCATS), 2013).
About 7,500 (2.1%) of roughly 360,000 compounds were called active. The shares of active, inactive and inconclusive entries below differ from those in the screen. The call rests on the fitted dose curve; in most records, active means well fitted cell-killing curve with a large enough effect; inconclusive means small, poorly fitted or top-dose-only effect, or effect the other way, or another doubt; inactive means no such curve, though single readings can be large or run the other way. Potencies of inconclusive entries are left out as doubtful fits.

test: qHTS for induction of synthetic lethality in tumor cells producing 2HG: qHTS for the HT-1080-IDH1KD cell line; settings: HT-1080 IDH1 knockdown viability, ATP luminescence, 48 h; activity, negative = toxicity: at 46.1 µM (top of the series) unless noted;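 on activity, negative = toxicity: 0% = DMSO wells and -100% = cell-free medium wells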
How it was run: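 % activity derives from luminescence (CellTiter-Glo), normalised to DMSO and no-cell wells. HT-1080-IDH1KD cells, 750/well, had 48 h compound exposure at 37 °C.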
Potency means the concentration at half of the fitted maximal effect; tags describe the fitted curve by direction and shape.

Structure (SMILES) | Potency | activity, negative = toxicity
CC(C)C[C@@H](COCc1cccc(C(F)(F)F)c1)N1CCN(C(=O)c2ccc(C(F)(F)F)cc2)CCC1=O | inconclusive [cytotoxic, single point] | –
CC(C)(C)C1CCc2onc(C(=O)Nc3cnn(Cc4ccc(F)cc4)c3)c2C1 (stereo unspecified) | inconclusive [cytotoxic, full curve, poor fit] | –
COc1ccccc1/C=C/C=N/N1CCN(Cc2ccc(Cl)cc2)CC1 | inconclusive [cytotoxic, single point] | –
COc1ccc2cc3cc(C(=O)N4CC(C)CC(C)C4)oc3nc2c1 (stereo unspecified) | inconclusive [rising, single point] | –
Cc1cc(C(=O)Cn2nnc3ccccc3c2=O)c(C)n1-c1ccccc1F | inconclusive [cytotoxic, partial curve] | –
C=CCn1c(O)c(N=NC(=O)CNC(=O)c2ccco2)c2ccccc21 | active: 20.6 µM | –
O=C(COc1ccc(Br)cc1)Nc1cc(S(=O)(=O)N2CCCCC2)ccc1N1CCCCC1 | inactive | –
CC1(Cc2ccccc2OC(F)(F)F)C(=O)Nc2ccc(S(=O)(=O)NC3CCCCC3)cc21 (stereo unspecified) | inconclusive [cytotoxic, single point] | –
COC(=O)c1ccc2c(=O)[nH]c(CCl)nc2c1 | – | inconclusive: -30.4% [cytotoxic]
O=C(Oc1ccc(Br)cc1C(=O)/C=C/c1ccccc1F)c1ccco1 | inconclusive [cytotoxic, partial curve, poor fit] | –
CCn1c(CNC(C)=O)nnc1SCC(=O)c1ccc(Br)cc1 | inconclusive [cytotoxic, single point] | –
COc1ccc(CCNS(=O)(=O)c2ccc(Br)cc2)cc1OC | inactive | –
CCN1CC(CNCc2cn(-c3ccc(OC)cc3)nc2-c2ccccc2Cl)CC1=O (stereo unspecified) | inactive | –
COc1ccc(Cn2c(CCC(=O)Nc3ccc(C)cc3)nc3cccnc32)cc1 | inactive | –
O=C(NCCN1C(=O)S/C(=C\c2ccc(Cl)cc2Cl)C1=O)C1=COCCO1 | inconclusive [cytotoxic, single point] | –
Clc1ccc(Nc2ccc(-n3ccnc3)nn2)cc1Cl | inconclusive [cytotoxic, single point] | –
CN(CC(CC(=O)Nc1nncs1)c1ccccc1)S(=O)(=O)c1ccc(Br)cc1 (stereo unspecified) | inactive | –
COc1ccc(NC(=O)C(c2ccccc2F)n2c(=O)c(-c3cc4ccccc4[nH]3)nc3ccccc32)cc1 (stereo unspecified) | inconclusive [cytotoxic, single point] | –
Cc1cc(C)nc(-n2ncc3c2CC(c2cccc(Cl)c2)CC3=O)n1 (stereo unspecified) | inconclusive [cytotoxic, single point] | –
CCCCn1c(N)c(N(CC(C)C)C(=O)CCNC(=O)c2ccccc2Cl)c(=O)[nH]c1=O | inactive | –
COc1cc2[nH]c(-c3cccc(F)c3)cc(=O)c2cc1OC | inconclusive [cytotoxic, single point] | –
Cc1ccc(NC(=S)N=Nc2c(O)n(C)c3ccc(S(=O)(=O)N4CCOCC4)cc23)cc1 | – | inconclusive: -21.7% [cytotoxic]

Structure (SMILES) | Potency | activity, negative = toxicity
COc1ccc(N2CCN(Cc3cc(=O)c(OCC(=O)Nc4ccccc4)co3)CC2)cc1 | inactive | –
COc1cc(/C=N/NC(=O)COc2ccc(Cl)cc2)ccc1OS(=O)(=O)c1ccc(C)cc1 | inconclusive [cytotoxic, single point] | –
COc1cc(/C=N/O)cc(Br)c1OCc1cccc(Cl)c1 | inconclusive [cytotoxic, single point] | –
Cc1ccc(S(=O)(=O)Nc2ccc(Cl)cc2)cc1NC(=O)c1cc2c(s1)CCCC2 | inconclusive [cytotoxic, single point] | –
Cc1cccc(-n2nnc(C(=O)NC3CCCc4ccccc43)c2N)c1 (stereo unspecified) | inconclusive [cytotoxic, single point] | –
CCc1nc2ccc(C(=O)NCCCN(C)C)cn2c1N(C)CCCc1ccccc1 | active: 23.1 µM | –
Cc1cc(C)c(S(=O)(=O)Nc2cnc3ccccc3c2)c(C)c1 | inactive | –
CCN(c1ccccc1)S(=O)(=O)c1ccc(OC)c(NC(=O)C2CCC2)c1 | inconclusive [cytotoxic, single point] | –
O=C(Cc1ccccc1)NNc1ccc2ccccc2c1 | active: 3.66 µM | –
C=CCc1cccc(C=Nc2c[nH]c(=O)[nH]c2=O)c1O | inactive | –
O=C(C1CC1)N1N=C(C2CCCCC2)CC1(O)C(F)(F)F (stereo unspecified) | inactive | –
COC(=O)[C@]12CCCCC=C1N(CCC1=CCCCC1)C(=O)[C@H](CC(=O)NCCc1ccccc1OC)C2 | inconclusive [cytotoxic, single point] | –
Nc1nnnn1/N=C/C=C/c1ccccc1 | inactive | –
COC(=O)[C@]12CCCCC=C1N(Cc1ccc(Cl)cc1Cl)C(=O)[C@H](CC(=O)NCc1ccc(C)o1)C2 | inconclusive [cytotoxic, single point] | –
COc1cc(/C=N/Nc2nncn2/N=C/c2ccc(O)c(OC)c2)ccc1O | active: 14.6 µM | –
CC(C)(CO)NC(=O)Nc1ccc(Cl)c(Cl)c1 | inactive | –
CCn1c(SCC(=O)NCCc2ccccc2)nc2c([nH]c3ccccc32)c1=O | inconclusive [cytotoxic, full curve, poor fit] | –
Cc1ccc2nc(N3CCN(S(=O)(=O)c4ccc(C)c(Cl)c4)CC3)c(C#N)cc2c1 | inconclusive [cytotoxic, single point] | –
COc1cc(OC)c2c(-c3cccc(-c4ccc(N(C)C)cc4)c3)cc(=O)oc2c1 | active: 1.3 µM | –
CC1(C)CC(=O)C=C(Nc2cc(-c3ccccc3)[nH]n2)C1 | inconclusive [cytotoxic, single point] | –
COc1ccccc1C1(O)CCN(CC(=O)Nc2nc(-c3ccccc3)cs2)CC1 | inconclusive [cytotoxic, single point] | –
Cc1ccc(OCCn2c(C)nc3ccccc32)cc1 | inconclusive [cytotoxic, single point] | –

Structure (SMILES) | Potency | activity, negative = toxicity
CCN(CC)S(=O)(=O)c1cc(NC(=O)CN2C(=O)NC(C)(c3ccccc3)C2=O)ccc1C (stereo unspecified) | – | inconclusive: -31.5% [cytotoxic]
CC(=O)c1ccc(N2CCN(C(C)C(=O)Nc3ccc4c(c3)OCCO4)CC2)cc1 (stereo unspecified) | inactive | –
O=C(/C=C/c1ccco1)c1cccnc1 | inactive | –
Cc1cnc(C)c(Nc2nc(C(N)Cc3ccc(F)cc3)cs2)n1 (stereo unspecified) | inconclusive [cytotoxic, single point] | –
CC(C)(C)OC(=O)C(Cl)(C(=O)OC(C)(C)C)c1ccc2nnnn2n1 | active: 18.4 µM | –
Cc1onc(-c2ccccc2)c1C(=O)Nc1nc(-c2cc(F)ccc2F)cs1 | inconclusive [cytotoxic, single point] | –
CN1C(CC(=O)Nc2ccc(Br)cc2)c2ccccc2CC1(C)C (stereo unspecified) | inconclusive [cytotoxic, single point] | –
Cc1ccc(-c2noc(CN3CCC(C(N)=O)CC3)n2)cc1 | inconclusive [rising, single point] | –
COc1cc(/C=N/NC(=O)c2cccnc2)ccc1OC(=O)c1cc(OC)c(OC)c(OC)c1 | inconclusive [cytotoxic, single point] | –
COc1ccc(S(=O)(=O)Nc2cccc(-c3ccc4nncn4n3)c2)c(OC)c1 | inactive | –
O=C(CSCc1ccc(Br)cc1)Nc1ccc(S(=O)(=O)N2CCCCCC2)cc1 | inconclusive [cytotoxic, single point] | –
C[C@]12c3[nH]c4ccc(Cl)cc4c3CCN1C(=O)[C@@H](CC(=O)NCc1cccc(C(F)(F)F)c1)C[C@@H]2C(=O)N1CCOCC1 | inconclusive [cytotoxic, single point] | –
NC(Cc1ccc(F)cc1)c1csc(NC(=O)NC(c2ccccc2)c2ccccc2)n1 (stereo unspecified) | active: 16.4 µM | –
C=CCn1c(CCNC(=O)c2cccs2)nnc1SCC(=O)c1cccc([N+](=O)[O-])c1 | inconclusive [cytotoxic, single point] | –
Cc1ccc(CN(Cc2cc3cc4c(cc3[nH]c2=O)OCCO4)Cc2nnnn2Cc2ccco2)cc1 | inconclusive [cytotoxic, single point] | –
COc1ccc(-c2cc(CCCC(=O)NCCc3ccccc3)no2)cc1 | inactive | –
CSc1ccccc1NC(=O)c1cc2c(=O)n3ccccc3nc2s1 | inconclusive [cytotoxic, single point] | –
O=C(O)CSc1nc(C(F)(F)F)cc(=O)n1-c1ccccc1 | inactive | –
Nc1nn(-c2ccccc2)c2ccc([N+](=O)[O-])cc12 | inconclusive [cytotoxic, single point] | –
Fc1ccc(COc2ccc3ccccc3c2CNc2nn[nH]n2)cc1 | inconclusive [cytotoxic, single point] | –
CC1(Cc2ccc(Cl)cc2)C(=O)Nc2ccc(S(=O)(=O)NC3CCCCC3)cc21 (stereo unspecified) | inconclusive [cytotoxic, single point] | –
COc1ccccc1C(=O)NC(CCSC)C(=O)NNC(=O)c1ccncc1 (stereo unspecified) | inactive | –
